Sequences and labels used below:
B1: OR4K15 (parent)
chain: GUUAACGGUCAUAGGCCAUGGAAACUAGGAGCACCAUUUCGCUGCCAGUGAAGAAAUGAACAAAGAAAAUCUGGGCCAGGCAGGCAUCAAAAGAAAUAGUCUUGCGCUCAACCAGAAAGUCUGUAAUCAUUUUAAGGGUA

The source of these data is the RNAGym collection of RNA variant scans (doi:10.7554/elife.90254).

The source gives no read counts; variants with many changes may rest on few reads.

The data set covers variants of B1. Description: self-cleavage, relative activity (ratio to wild type); higher = more cleavage; in vitro, sequencing; the parent is a self-cleaving ribozyme.
For A22G C42U A91G, the self-cleavage came to 1.3.

In the case of A22G A27C A135G, the self-cleavage stood at 1.7.

Turning to A22G A23G U43C U124A, the self-cleavage stood at 0.46.

Turning to U19C U49A A66G A116G, the self-cleavage worked out at 0.08.

Turning to A22G A30G A33G, the self-cleavage is 0.9.

A22G U38C A59G G74A A117G: the self-cleavage is 0.1.

For G20A U37C A111G, the self-cleavage came to 0.02.

For U19C U37C U57C U131C, the self-cleavage was 1.75.

On to A22C A78U U100C A116G, for which the self-cleavage is 0.65.

Take A22G A54G A64U U97C A98G: the self-cleavage is 0.75.

For U19C U38C A114G A118U, the self-cleavage came to 0.09.

Take A22G A66G C113A: the self-cleavage was 0.04.

As to A22G A62G A69G, the self-cleavage was 1.26.

For A22C A23G U39C U103C, the self-cleavage was found to be 0.7.

With A22G A64U A66G U70C A78G, the self-cleavage was determined as 0.03.

With A22U A64G A117U, the self-cleavage is 1.05.

For A22G U49C C113U, the self-cleavage came out at 0.12.

For U19C U26C A91G A114G, the self-cleavage amounted to 0.41.

Turning to G21U A94G U108C A129G, the self-cleavage came to 0.

Regarding A22U A54G C71A, the self-cleavage was 0.74.

In the case of A22G A56G A140G, the self-cleavage came out at 1.14.

As for U19C U38G A66G G73A U108C U127C, the self-cleavage came to 0.01.

As for A22G A47G U72C, the self-cleavage was determined as 0.61.

Take U19C U57C A69G U103C U132C: the self-cleavage was 0.97.

In the case of A22G U43C A116G, the self-cleavage was 1.59.

As for U19C U43A A55G G58A A59G U100A, the self-cleavage was found to be 0.36.

With A22G A51G A52G U132C, the self-cleavage came out at 0.94.

In the case of A22G A62G G73A, the self-cleavage stood at 0.32.

Regarding A22G U37C U57C G138A, the self-cleavage stood at 0.11.

For the variant A22G U26A A30C A54G U70C U87C U120C, the self-cleavage came out at 0.11.

Take A22G U26A A51U A98U U122C: the self-cleavage worked out at 1.09.

Turning to A22G A54U U103C, the self-cleavage came out at 1.1.

G21A A116G U127C: the self-cleavage worked out at 0.42.

Regarding A22G A27G A47U A68G A92G A98G, the self-cleavage is 0.08.

Turning to A22G A69G A94G U108C, the self-cleavage was determined as 0.06.

Consider A22G U70A U108C A114U U131C, for which the self-cleavage was 0.

For the variant G20A A52G A56G A63G, the self-cleavage was 1.35.

As for G20U U49C G123A, the self-cleavage is 1.29.

Regarding A22G U37C A47U A68G, the self-cleavage was determined as 1.38.

For A22G U43C C105G G115A, the self-cleavage was determined as 0.02.

Consider A22G U37C A54G, for which the self-cleavage was 1.35.

Consider G21A G41A U49C, for which the self-cleavage is 1.62.

As to A22G G31U C42U U102C, the self-cleavage worked out at 2.66.

For the variant U19C U37C A56G A60U A86G, the self-cleavage came to 0.87.

As for A22G U70C C85U A98G A118G, the self-cleavage was found to be 0.21.

As to A22G U37C A52G A114U A117G A129G, the self-cleavage amounted to 0.01.

For the variant A22G U100C A111G U127A U132C, the self-cleavage is 0.01.

As for G20U A56G A64C, the self-cleavage is 0.8.

Take U19C U102C U108C: the self-cleavage was determined as 0.01.

Consider A22G A82G A125G, for which the self-cleavage is 0.07.

Consider A22G A23G G115A U122A, for which the self-cleavage turned out to be 0.04.

On to A22G U37C G115A, for which the self-cleavage was found to be 0.03.

As to A22G A23G A24U U38C C76U A94G, the self-cleavage is 0.09.

On to A22G A54G U131C, for which the self-cleavage was 0.87.

In the case of G21A A66G G138A, the self-cleavage is 1.47.

As for A22G A55G A96G, the self-cleavage was determined as 1.23.

With A22G U49A A63U, the self-cleavage was 1.23.

For A22U C45A U49A A59G, the self-cleavage is 1.32.

Take A22G U49G A92G A118G: the self-cleavage is 1.45.

Consider A22G U70C U100C, for which the self-cleavage worked out at 1.06.

For the variant U19C U57C A66G A82G, the self-cleavage was determined as 0.36.

As to A22G U39A U102A U124C, the self-cleavage was 0.51.

Regarding A22G A54G A69U, the self-cleavage is 1.74.

For A22U A78G A135G, the self-cleavage is 0.23.

For the variant A22G A51G A89G U132C, the self-cleavage amounted to 1.29.

Regarding A22G U100C U132C, the self-cleavage stood at 2.13.

A22C A62G A67G A68G A78G C121U: the self-cleavage came out at 0.4.

In the case of A22G U26C A82G, the self-cleavage was determined as 0.34.

On to G20A A47G U49G G65A U122C, for which the self-cleavage was 0.7.

Turning to A22G A36G A56G A68G U87A, the self-cleavage amounted to 0.

Take A22G G119A U131C: the self-cleavage worked out at 1.04.

Turning to U19C U100A A135G, the self-cleavage came to 0.54.

For the variant A22G A111U U122C, the self-cleavage worked out at 0.07.

On to A22G G115A U132C, for which the self-cleavage turned out to be 0.14.

Regarding U19C U72C A126G, the self-cleavage came out at 0.1.

Regarding A22G G44A A56U, the self-cleavage was 1.03.

In the case of A22G A55G A60U U102C G115A A126G U133A, the self-cleavage was determined as 0.14.

In the case of A22G U39C A51G A60G A67G, the self-cleavage was determined as 0.78.

On to A22U A78U A111U, for which the self-cleavage turned out to be 0.03.

Turning to A22G A98G U108C, the self-cleavage came to 0.03.

Take A22G U39A U57G A134G: the self-cleavage was 1.58.

On to A22G U38A A54U, for which the self-cleavage is 1.05.

Turning to A22G A59G A63U, the self-cleavage was 1.05.

For the variant A22G U39A A55G U57C A95G A126U, the self-cleavage turned out to be 0.56.

Regarding G21A A33U A51G U70A, the self-cleavage was determined as 1.08.

Consider A22U C85A U103C, for which the self-cleavage is 0.09.

On to A22U A63G A110G, for which the self-cleavage came out at 0.18.

For A22G A33U U39C U132C, the self-cleavage worked out at 1.02.

Consider A22G A62G A90U U124C C128A, for which the self-cleavage came out at 1.1.

Consider A22G A30G C34G U133C, for which the self-cleavage was 0.25.

Take A22G A118G U127C U131A: the self-cleavage is 0.09.

A22C U37C A68G: the self-cleavage is 1.76.

Regarding G20A U37A A67U, the self-cleavage amounted to 1.79.

Consider A22U A56G A68G C128U, for which the self-cleavage came to 1.17.

For the variant U19C U70C A140G, the self-cleavage came out at 0.33.

A22U U70C A89U A92G U108C: the self-cleavage is 0.02.

For the variant A22G U39C U120C, the self-cleavage worked out at 1.05.

Consider A22G U37C A47G A62U U102C, for which the self-cleavage was 0.35.

With G21A A23G A33U U37C A90G, the self-cleavage was found to be 0.59.

A22U A86U A96G U100C: the self-cleavage stood at 0.64.

A22G C34U A63G A67G U72A: the self-cleavage was determined as 0.2.

U19C G41U A56G A114G A117U: the self-cleavage stood at 0.32.

Regarding A22G A94G U108C, the self-cleavage came out at 0.05.

In the case of A22G A30G A82G, the self-cleavage turned out to be 1.14.

Turning to A22G G44A A52G A96G, the self-cleavage came out at 1.69.

U19C U26C A114U: the self-cleavage is 0.13.

With A22G C40U A55G, the self-cleavage is 0.66.

A22G A52G U124C: the self-cleavage came out at 1.07.

Turning to A22G A64G A82U A118G, the self-cleavage is 0.07.

Consider A22U A56G C105G, for which the self-cleavage was 0.05.

Take A22G A67G U127C: the self-cleavage is 1.01.

Turning to G20A A60G A89G, the self-cleavage came out at 1.18.

Regarding A22G U39C A95G U133A, the self-cleavage was determined as 1.81.

A22G A24C A89U: the self-cleavage worked out at 1.51.

As to A22G A59G A60G A117C, the self-cleavage amounted to 0.15.

Take G20A A86C U132C: the self-cleavage came to 1.13.

Regarding A22U A24C A95G, the self-cleavage stood at 2.37.

For A22G A82U U130C A135G, the self-cleavage came out at 0.13.

A22G U38C A66G U132C: the self-cleavage worked out at 1.51.

Turning to A22G A52G A59G A60U A63G A82G U108C A126G A129U, the self-cleavage came out at 0.03.

Consider U19C U38C A66G A89G C105A A125G, for which the self-cleavage came out at 0.01.

G20U C32U A90G U97C A98G: the self-cleavage was 0.23.

For A22G U39C A59U A82G A91G, the self-cleavage was 0.06.

For the variant A22G A23G A63G, the self-cleavage is 0.4.

Turning to A22U A66G U87C, the self-cleavage was found to be 1.02.

As for A22G U43A U70C U87A U120C, the self-cleavage amounted to 0.23.

Take A22G A30U U37G A82U: the self-cleavage turned out to be 0.19.

With A22G A56C A125G, the self-cleavage stood at 0.38.

For the variant A22G A23G A55G, the self-cleavage is 0.96.

As to A22G A63G U120C, the self-cleavage came to 1.38.

On to A22G A52G A78G A114U, for which the self-cleavage was 0.14.

In the case of A22G U49C A69G C128U, the self-cleavage stood at 0.89.

Consider G20A A68G A89U U100G, for which the self-cleavage stood at 0.73.

G20A A36G A59G A62G A90G: the self-cleavage came out at 0.89.

Take A22G U38C U133C: the self-cleavage was determined as 1.42.

For the variant A22G U26A A134G, the self-cleavage worked out at 0.87.

A22G A23G U49A A54G A64G: the self-cleavage was found to be 1.27.

U19C U103C A111G: the self-cleavage was determined as 0.03.

On to A22G C101U U130C, for which the self-cleavage was 0.19.

As for G20U A51G A82C A89U, the self-cleavage amounted to 0.28.

A22U A60G A118U U122A: the self-cleavage was 1.38.

As to U19C U38C A62U A66G, the self-cleavage was found to be 1.22.

For A22G U26C A56G A114G, the self-cleavage was 0.49.

Regarding A22G U26C A95G U120C, the self-cleavage was 1.32.

Consider A22U A96G A117G, for which the self-cleavage came to 2.41.

A22G U49C U108A U122C: the self-cleavage turned out to be 0.02.

With G20A A22U A23G A78U A111G U132C, the self-cleavage is 0.05.

For G20U A66G A117G, the self-cleavage is 2.01.

For A22G A51G U108C, the self-cleavage came out at 0.02.

With A22G U38C U39C A96G U131C, the self-cleavage is 1.62.

Turning to U19C U39C A55G, the self-cleavage amounted to 1.43.

On to A22U A27G U38C U103C U132C, for which the self-cleavage is 0.55.

U19C U38A A69G A95G: the self-cleavage was found to be 1.7.

As for A22G U102A A114G, the self-cleavage was found to be 0.12.

Take A22G A36G A118G: the self-cleavage was determined as 0.75.

For the variant U19C U87C U139A, the self-cleavage turned out to be 1.1.

Consider A22G A33G U39C A78G, for which the self-cleavage is 0.26.

Regarding A22G U87C U108C A116G A129C U130G U132C A134G, the self-cleavage is 0.26.

In the case of G20A C34U A51U U131C, the self-cleavage was determined as 0.9.

A22G A59U A89C A114G: the self-cleavage is 0.22.

As to U19G A63U A66G U87C, the self-cleavage came to 1.33.

As to A22G A36G A63G, the self-cleavage stood at 1.6.

Consider A22U A56G A60G, for which the self-cleavage is 0.56.

For A22U U70C U100C U131C, the self-cleavage was 2.37.

With A22G A59G U70C A96G A116G, the self-cleavage is 1.03.

As for A22G A78G U103C U108C U133A, the self-cleavage was 0.04.

Turning to A22G A116G G123A, the self-cleavage came to 0.98.
